From the supplement of paper PMC3334620 come the findings set out here.

In all, about 33,000 sequences were measured (“E-score (-0.5 to 0.5)”: median about -0.032, highest 2% from about 0.36 on). The list shows a part of the results.

For the assay, the target named is T1, Sko1 (UniProt Q02100).
T1 sequence: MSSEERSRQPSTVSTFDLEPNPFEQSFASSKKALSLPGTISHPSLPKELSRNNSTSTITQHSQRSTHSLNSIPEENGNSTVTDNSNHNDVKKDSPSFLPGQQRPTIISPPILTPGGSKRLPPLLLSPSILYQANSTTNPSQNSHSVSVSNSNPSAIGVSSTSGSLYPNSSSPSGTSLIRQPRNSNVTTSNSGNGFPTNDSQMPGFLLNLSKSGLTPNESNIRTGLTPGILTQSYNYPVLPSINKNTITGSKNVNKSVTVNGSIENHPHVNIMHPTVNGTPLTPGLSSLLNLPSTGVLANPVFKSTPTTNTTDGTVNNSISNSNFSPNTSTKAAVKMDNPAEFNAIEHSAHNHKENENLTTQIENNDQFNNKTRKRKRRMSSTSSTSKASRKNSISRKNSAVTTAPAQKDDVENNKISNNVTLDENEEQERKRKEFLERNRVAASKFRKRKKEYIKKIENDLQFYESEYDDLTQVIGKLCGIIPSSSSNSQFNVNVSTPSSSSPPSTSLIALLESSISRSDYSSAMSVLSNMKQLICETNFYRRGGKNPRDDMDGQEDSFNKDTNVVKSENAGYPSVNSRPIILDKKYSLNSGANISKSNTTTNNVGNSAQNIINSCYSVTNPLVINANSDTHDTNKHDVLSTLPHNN
Kind of assay: PBM E-score (8-mer binding enrichment) (E-score (-0.5 to 0.5)); higher = stronger / more preferred TF binding; most listed sequences are background and not binding sites. The note with it: protein concentration: 200 nM; construct: GST-full length. The procedure, abridged: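 Yeast transcription factors carrying a GST tag, as full-length proteins or DNA-binding domains, were produced by PURExpress in vitro transcription/translation. About 100-200 nM protein was applied to universal all-10-mer Agilent arrays, double-stranded by primer extension on fresh or once-stripped slides. Bound protein was detected with fluorescent anti-GST, and scans were normalised with masliner. The Universal PBM Analysis Suite gave each ungapped eight-base word, pooled with its reverse complement, an E-score, a modified Wilcoxon-Mann-Whitney statistic.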
On to GCACAAAC, for which the “PBM E-score” value is -0.102. On to CCTGAAGG, for which the “PBM E-score” value was -0.23. The result for CGCCCCGA reads -0.261; that for AGGTTAAG, -0.209. As for AGATGAAA, the “PBM E-score” value is 0.0142.

As for CTAGCGAA, the “PBM E-score” value was -0.217. Regarding CGGTAACG, the “PBM E-score” value was found to be 0.0517. Consider GGCGAGCC, for which the “PBM E-score” value is -0.341.

CGGCCTAA: the “PBM E-score” value was -0.256. CAGACGCA: the “PBM E-score” value turned out to be 0.055. With CATCGATC, the “PBM E-score” value was determined as 0.0238. Regarding ACATTCAT, the “PBM E-score” value came out at 0.133. Turning to AGCCAGGA, the “PBM E-score” value was -0.0294.

Consider CGGTGGTC, for which the “PBM E-score” value was -0.329. Take TCAAACCA: the “PBM E-score” value came out at 0.0693. As to CACTCTAC, the “PBM E-score” value was determined as 0.104.

For ACCAGCAG, the “PBM E-score” value is -0.148.

Regarding ATCGGGCA, the “PBM E-score” value was -0.161. As for TGCAACAA, the “PBM E-score” value is 0.137. With GGCTCACC, the “PBM E-score” value was -0.335.

As to GCGGAGCC, the “PBM E-score” value was -0.301.

Regarding GTATTAGA, the “PBM E-score” value was determined as 0.222. In the case of ATAAGATG, the “PBM E-score” value is 0.117. Turning to CATGCTAG, the “PBM E-score” value amounted to 0.0828. Turning to ATACCACC, the “PBM E-score” value was -0.0659. For the sequence CATATGTC, the “PBM E-score” value stood at 0.167. For CTTGCTCC, the “PBM E-score” value was -0.2.

Turning to GTCGACTA, the “PBM E-score” value was found to be 0.221. In the case of GGTTCTAC, the “PBM E-score” value was -0.115. For the sequence CTCTATCC, the “PBM E-score” value was -0.148. GCTCAAAA: the “PBM E-score” value was 0.0938. For ACTTGGGA, the “PBM E-score” value was -0.277. On to AATTCAAG, for which the “PBM E-score” value stood at 0.0365. As for TTATTAAA, the “PBM E-score” value is 0.221. On to CTCATGCA, for which the “PBM E-score” value came to 0.0469.

As for GGCATGCC, the “PBM E-score” value was -0.252. As for AAAGACCT, the “PBM E-score” value is -0.0134. With AGATTCGA, the “PBM E-score” value was determined as 0.0181. Take GATTGATA: the “PBM E-score” value came out at 0.203. Regarding ATTTTCTC, the “PBM E-score” value worked out at 0.0177. As for AGTAGCCA, the “PBM E-score” value is -0.124. For CATGCTGC, the “PBM E-score” value is -0.0935. Turning to CTGATAGA, the “PBM E-score” value is -0.00597. Take CCCTTATA: the “PBM E-score” value is -0.00749. For the sequence AAGGAAAG, the “PBM E-score” value is -0.188. Take CTCAAGTC: the “PBM E-score” value is -0.157. Turning to AACGGGGC, the “PBM E-score” value is -0.00476. The result for AATATGGT reads 0.113; that for ATAGGACC, -0.363. In the case of AAACGCCA, the “PBM E-score” value came to 0.12.

Take CTTGTGAA: the “PBM E-score” value is -0.0605. The figure for AACGTCAA is 0.424; for CGTAGTCC it is 0.0302.

In the case of AAGGTGCA, the “PBM E-score” value is -0.0402. The figure for GATTCATA is 0.0517; for CAAAGAGG it is -0.214; for CTAGGAGC it is -0.252. For the sequence CAATAGCC, the “PBM E-score” value was -0.095. Take AATCGACT: the “PBM E-score” value is -0.114. The figure for CCTAGCAA is -0.128. As to CCTCGCTC, the “PBM E-score” value was -0.0865. In the case of TGGTTCAA, the “PBM E-score” value came out at 0.0525. For the sequence ACGTGACT, the “PBM E-score” value was 0.324.

GACACGAC: the “PBM E-score” value came out at 0.0945.

As for CGACCGCA, the “PBM E-score” value was -0.266. Turning to AAGATGAT, the “PBM E-score” value worked out at 0.277. For AATGACTA, the “PBM E-score” value came to 0.0941. In the case of AGCTGTAG, the “PBM E-score” value was -0.169. As for ATGTGGGG, the “PBM E-score” value is -0.275.

Regarding ACATTGGT, the “PBM E-score” value is -0.106. The figure for GCCCCCAA is -0.188; for GGTAGAAC it is -0.13. With GAGGTGGC, the “PBM E-score” value is -0.225.

Take ACTATAAG: the “PBM E-score” value stood at 0.0577. Turning to TGGATTAA, the “PBM E-score” value came to 0.0521. Turning to CGCTGACA, the “PBM E-score” value was found to be 0.0388.

On to GGCTTGCA, for which the “PBM E-score” value was -0.0735.

Regarding CTCCCGTA, the “PBM E-score” value is -0.148. Consider AGCCGAAA, for which the “PBM E-score” value was -0.0837. The result for AATTTACC reads 0.00322; that for GTGCTAAC, 0.0195; that for CCACAATC, -0.0986. Regarding ATCATATA, the “PBM E-score” value was 0.244.

For CTCCTATA, the “PBM E-score” value is -0.051.

As to GCACTTAC, the “PBM E-score” value is 0.149. As to TAAGGACA, the “PBM E-score” value turned out to be 0.0276. As for GAACTGAA, the “PBM E-score” value amounted to 0.0186. In the case of AGTCCGGC, the “PBM E-score” value was -0.0532. The figure for CGTGCCTC is 0.136; for ACGTCTGA it is 0.339. Turning to CAGGAAGA, the “PBM E-score” value is -0.156.

Take ACATAGAG: the “PBM E-score” value stood at 0.0283. Take ACGGACCA: the “PBM E-score” value was 0.03.

Regarding ACAATGCT, the “PBM E-score” value was -0.0168. CTGACACC: the “PBM E-score” value is -0.157. The figure for CAGGGTAG is -0.161; for AGTCTACG it is 0.085; for GGTCCACC it is -0.367. AGCAACAC: the “PBM E-score” value amounted to 0.0523. Take GTCCAGAC: the “PBM E-score” value is -0.278.

For the sequence AGCTATCA, the “PBM E-score” value was determined as 0.0219.

On to GAAAGAAA, for which the “PBM E-score” value came out at 0.126. Consider GCTACTGA, for which the “PBM E-score” value is 0.00969.

CCTGCAAA: the “PBM E-score” value is -0.179. As for CAGTGACC, the “PBM E-score” value is -0.18. For GTAGGGTA, the “PBM E-score” value is 0.1. The figure for ACTCCCGA is -0.223; for AACGGTAA it is -0.0291. On to GTAAGCAC, for which the “PBM E-score” value amounted to 0.0204. As to TACAAGAA, the “PBM E-score” value turned out to be 0.144.
